From the supplement of paper PMC11417369
± gives the standard deviation of the averaged measurements. Some of the results follow.

These sequences were tested on PfAP2-G AP2 domain (GST-tagged) (assay: gcPBM binding intensity (ln(normalized median fluorescence intensity)); higher = stronger DNA binding).
Procedure, shortened: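 GST-tagged P. falciparum DNA-binding domains produced in E. coli were incubated for 1 h on an Agilent 4 × 180k array of primer-extended double-stranded 36-bp intergenic genomic probes with negative controls. Binding intensity is the highest Masliner-normalised natural-log median intensity across replicate spots of either probe orientation, with bound protein detected by Alexa488 anti-GST antibody at 488 nm.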

| Sequence | gcPBM binding intensity (ln) |
| --- | --- |
| ATATCATTATATAGTTGTACATATTTATTTATTTAT [XGTACX_site8995] | 11.5 ± 0.76 |
| AATATAGGAATATGCACACATATATACCTACATACA [CACACA_site4939] | 9.965 ± 0.049 |
| AAAAAAAAAAATACTAGTACGTAAAATTATATAAAT [XGTACX_site3019] | 11.2 ± 0.64 |
| CTATTTAAAATATGAACACACATTATTTGTTTTAGA [CACACA_site2713] | 9.855 ± 0.064 |
| ATTTCCCATACACGTTGTACAATGTAGAGAAAGTAT [XGTACX_site4586] | 11 ± 0.57 |
| GATATGTGTATAATATGTACATATATATATATATAT [XGTACX_site6531] | 11.3 ± 0.64 |
| TTTTGGTTAATTCCCCCCATTACATTATGTCATGTC [CACACA_negctrl_site229] | 11.2 ± 0.87 |
| ACATATATATATATATATTGATTTATTTATTTCCCT [CACACA_negctrl_site659] | 10.6 ± 0.34 |
| ATATATATATATAAATGTACAAAAATATATATGTAA [XGTACX_site4531] | 10.9 ± 0.49 |
| CTTCCTTAGGAATGTACACACATATAAAATATGTTG [CACACA_site6355] | 11.4 ± 0.84 |
| AAGAAAGAGTTCTGTTGTACAAAATATTAATATGTA [XGTACX_site7213] | 10.9 ± 0.28 |
| TAATACTTATATAAAGGTACACAATTTAACCGAATG [XGTACX_site7173] | 11.2 ± 0.54 |
| GTAAATATTCATATATGTACTTATGATATTTGCTAA [XGTACX_site6828] | 11.1 ± 0.69 |
| TTTATTAAGAAACACACACACACACCCAAAATAAAA [CACACA_site242] | 10.5 ± 0.44 |
| CTTTATTATAAGATTACACACATGTGTTCTAATTTA [CACACA_site7479] | 9.905 ± 0.007 |
| TATAAACAAAACAAAACATGCATAATACTATAAATT [TGCATGCA_site333] | 9.93 ± 0.13 |
| TAATTAACTTTATATGCATGTTAAAAATGTTATAAG [TGCATGCA_site761] | 9.685 ± 0.021 |
| AACAAAATAAAAAGTAATCTTATTTATTAAAATTTT [CACACA_negctrl_site419] | 9.63 ± 0.14 |
| TTTTTCTGTTTTTATAGCCTTCTCATAATACATAAA [TGCATGCA_negctrl_site355] | 10.2 ± 0.49 |
| GCTAATAATAAAAGCATAATGAACAAACACCCAGTA [CACACA_negctrl_site806] | 10.3 ± 0.19 |
| TTATATAACACGGGGAGGACACAAGAAATAAAGAGC [XGTACX_site2148] | 11.5 ± 0.95 |
| TTTATTCAAATATAATGTACTTTCTACAAATTCAAT [XGTACX_site8119] | 11 ± 0.76 |

| Sequence | gcPBM binding intensity (ln) |
| --- | --- |
| CATATATAAATATATACACACATATATATATATATA [CACACA_site1365] | 10.2 ± 0.69 |
| ATTTTTTTTGCTAAGTGTACACAAATGTTTATTAAT [XGTACX_site7440] | 11.7 ± 0.81 |
| TATACGCAGAAACACACACACAAAAAAAAAAAAAAA [CACACA_site427] | 9.87 ± 0.38 |
| TATAATAAATCGAACTGTACATATATATATATATAT [XGTACX_site7097] | 11.1 ± 0.57 |
| ATTCGGATCTATAAGTGTACACAATCTAGCGAAAAG [XGTACX_site3088] | 11.5 ± 0.83 |
| ATATTTTCCCTTTATAGGAGCACAAAAATTAAATGT [CACACA_negctrl_site1114] | 10.5 ± 0.3 |
| CAGATAAGATTTTGTGGTACTATTTATTAAATTAGA [XGTACX_site2644] | 11.1 ± 0.66 |
| AAATTTTTATAATTATCACACATTGAATTGTGGTCT [CACACA_site4343] | 10.23 ± 0.035 |
| AGCGTATAACATATGACACACACACCGACATACACA [CACACA_site8532] | 10.2 ± 0.2 |
| ATATATATATGGAAGTGTACTTATATAGCATACTAG [XGTACX_site5130] | 11.4 ± 0.69 |
| TACGTATCATAATTTTATTTTATATATATTCACAAA [XGTACX_negctrl_site144] | 10.1 ± 0.29 |
| ATTCACAAATATATGGTGCATAATATATATATATAT [GTGCAC_site9674] | 10.1 ± 0.28 |
| AACAATTATTGTAATGCATGCACTGAATATAGAAAG [TGCATGCA_site889] | 10.2 ± 0.18 |
| TTCCAATGATAAAATTGTACTTGAAGAAAATTTTTT [XGTACX_site4607] | 10.9 ± 0.65 |
| AATATGTAAATATGGGTGCTTTAAAATATATTCATT [GTGCAC_site9583] | 10.02 ± 0.099 |
| TAATTATTTTTATTGTTGCACTAGTAAAATTTTAAG [GTGCAC_site9946] | 10.2 ± 0.16 |
| CAATTTATTATATATGTGCACATATAATTTTACAAA | 10.3 ± 0.33 |
| TACATTTTAATATAAGCATGCCTTTAGTTTTTTTCT [TGCATGCA_site829] | 9.82 ± 0.12 |
| AATACAAATATATATGCACACACATATACATACATA [CACACA_site8677] | 10.1 ± 0.16 |
| AAAAAGAAATACAAATAATATATATATATATATATT [TGCATGCA_negctrl_site458] | 9.68 ± 0.2 |
| CATAAAAATTGAAGCACACACACAAAAGAAATACAA [CACACA_site1112] | 10.3 ± 0.2 |
| AATAAACAAATAAATAAACACACAATATATGTATAT [CACACA_site9268] | 9.76 ± 0.2 |

| Sequence | gcPBM binding intensity (ln) |
| --- | --- |
| TTTTTTTTTTCTTTTTTTTATTATATTAACGGAATT [GTGCAC_negctrl_site104] | 9.82 ± 0.17 |
| CACATACAGATATATACACACAAATATAAATACACA [CACACA_site6512] | 10.2 ± 0.2 |
| AATAAATATAAAAATGCACACACACTAATAAAAAAA [CACACA_site8201] | 10.2 ± 0.13 |
| TTACTTATATGCATAGTGCAAATTTGGTAAATATCT | 10.1 ± 0.16 |
| AAAATAAATATATTATCCACGTTGTATATATATATA [XGTACX_negctrl_site136] | 10 ± 0.29 |
| TTTCTTTAACAAGTTAAACACACATACATATATACA [CACACA_site8810] | 10.03 ± 0.099 |
| ATCATTTCTATATAAGCACACACGTGGAATTTTTTT [CACACA_site2786] | 10.2 ± 0.035 |
| TATTTTTTTTGATATTGTACTTTTTTATTATTTTTT [XGTACX_site566] | 11.5 ± 0.98 |
| TAAAAATTTAAGAAAACATGCATCTAACATATATAT [TGCATGCA_site342] | 9.93 ± 0.085 |
| AATATACAAAATAAATAAAATATATATATATATATA [CACACA_negctrl_site216] | 9.89 ± 0.42 |
| TTTTATTTTCGATGATGTACATTAAATTATACAGTA [XGTACX_site6053] | 11.1 ± 0.62 |
| AAATATTACTCCTCAAGTACACATAAAAAAAAAATA [XGTACX_site2085] | 11.4 ± 0.97 |
| TTGTTTTCACCAAATACACACAAGCATACACCCCAT [CACACA_site2717] | 10.8 ± 0.55 |
| ATACATAAATTTATACGTACATATATAGATACATAA [XGTACX_site675] | 11.5 ± 0.91 |
| TTACATGCTAAAATTTGTACATATATGATAAATATT [XGTACX_site2648] | 10.9 ± 0.48 |
| AAGTAAAATAAGTATACACACATAAATATGTAAATA [CACACA_site6467] | 10.1 ± 0.16 |
| TTCTTACACAAAAAAATGAAATCAATCAAAAAAAAA [CACACA_negctrl_site869] | 9.895 ± 0.078 |
| TATATATTTCAATAATGTACATATAATATATATATT [XGTACX_site4124] | 11.1 ± 0.64 |
| AATGTGTAGACACGCACACACAAAAAAATATTTATA [CACACA_site7384] | 10.2 ± 0.27 |
| GTATATATGTATGTATGTACTTATAAAGTTGCATAT [XGTACX_site5616] | 11.3 ± 0.71 |
| TCTACATCTGTATATAAACACACAACAAAAATGCTT [CACACA_site9271] | 9.935 ± 0.035 |
| TATTTATTGTGATACTTATATTATTTCATGATTAAT [CACACA_negctrl_site738] | 10.2 ± 0.29 |

| Sequence | gcPBM binding intensity (ln) |
| --- | --- |
| ACTTTATTATATATTTGTACATATATTTTTAATTTC [XGTACX_site4144] | 11 ± 0.54 |
| ACATTCTGATGGTGATTATTAATTATTACAAAAATT [CACACA_negctrl_site283] | 9.845 ± 0.021 |
| GAAAATATATTTAAGATGCACTTTAAAAATGTACTT | 10.5 ± 0.26 |
| AAGTAATCATCATAAAGTACTAAATTATATTGTCAA [XGTACX_site5841] | 10.7 ± 0.38 |
| AAATTATATATAAAATGTACATATGTAGGTAATTTT [XGTACX_site5047] | 10.9 ± 0.49 |
| TGATTCTTTTCAAAGTGTACAGTAATTTTTATGTAA [XGTACX_site8452] | 11.4 ± 0.76 |
| TATATAATTCAAAAATGTACATGAAATATAAATATT [XGTACX_site7984] | 11 ± 0.59 |
| ATATTATAAATTATAGGTACACACAAAAAAAAAAAG [XGTACX_site2637] | 11.3 ± 0.84 |
| AAATATATTGCATATATACACACGTATATATATTAA [CACACA_site2759] | 9.94 ± 0.014 |
| ATATCAAGCTATGAGAAAAAAAAAAAGAAAAAAAAA [CACACA_negctrl_site1370] | 9.845 ± 0.092 |
| AAGTTTTCTTAAAGATGTACTTTTTAAAAATAAAAT [XGTACX_site3063] | 11.3 ± 1 |
| TATCAGCAATGGAAAACATGCAAAAAATTAATATAT [TGCATGCA_site623] | 9.74 ± 0.16 |
| GCCATTAATTTATACACACACATTATAACTTTTTAT [CACACA_site6492] | 10.2 ± 0.12 |
| TTAAATAAAAAAATAACACACATATAAATCTATATG [CACACA_site7482] | 9.795 ± 0.035 |
| AATACGTTTCAAAAATGTACACATATATCATAAATA [XGTACX_site8962] | 11.3 ± 0.94 |
| ATCAAAAATGTTATATATATATATATATATATATAT [TGCATGCA_negctrl_site71] | 10 ± 0.83 |
| TCTTCAAAGACACAATCACACACATACATAAATATA [CACACA_site8128] | 10 ± 0.17 |
| AGAATTAAAAACAGTTGTACAAAAAGTTGTATAAAT [XGTACX_site411] | 11.1 ± 0.44 |
| AACTTGTATTTATACACACACACACTAGCTTTTTTT [CACACA_site5132] | 10.14 ± 0.092 |
| TTAAAAATCATTTAAGAACACACAAATATTTCCATT [CACACA_site8418] | 9.78 ± 0.23 |
| AGTAATAAATTTTATACATGCATAAAAAAAAAAAAA [TGCATGCA_site661] | 9.72 ± 0.27 |
| TATAGCTTTCATTATACACACATCAAAAATTTAAAT [CACACA_site227] | 10.1 ± 0.16 |
